Measured values as given in PubChem BioAssay (Tox21).
Where “and” joins values, the source holds several entries; their conditions need not be identical. Equal entries are not always repeated. The inconclusive results got no clear call from the source; some entries with a clear call stand among them for comparison. For part of these data: Potencies beside an inconclusive call are fits to weak or partial responses and may not hold up. Calls of active or inactive are those of the source. Unless noted, calls follow the shape of the dose curve; as a rule, active = well fitted curve in the direction sought with a large enough effect in the repeat runs; inconclusive = weak or mixed curves; inactive = no such curve, though single readings can be large; an effect the other way counts as inactive or inconclusive.

Columns and labels:
[1] = target: Peroxisome proliferator-activated receptor gamma (Homo sapiens) (UniProt P37231); assay: qHTS assay to identify small molecule antagonists of the peroxisome proliferator-activated receptor gamma (PPARg) signaling pathway (AID 743191; calls by dose curve; also: nearly all actives have a fitted effect of over 30% in size; also: potency is read from the fitted curve at half-maximal effect; as to ratio activity, negative = inhibition: % is scaled to controls: 0 for no effect and ±100 for the full control effect); conditions: HEK293H PPARg-UAS-bla, beta-lactamase ratio, antagonist, 17 h; ratio activity, negative = inhibition: at 62.6 µM (top of the series) unless noted
UniProt P37231, sequence (P37231 whole entry, looked up): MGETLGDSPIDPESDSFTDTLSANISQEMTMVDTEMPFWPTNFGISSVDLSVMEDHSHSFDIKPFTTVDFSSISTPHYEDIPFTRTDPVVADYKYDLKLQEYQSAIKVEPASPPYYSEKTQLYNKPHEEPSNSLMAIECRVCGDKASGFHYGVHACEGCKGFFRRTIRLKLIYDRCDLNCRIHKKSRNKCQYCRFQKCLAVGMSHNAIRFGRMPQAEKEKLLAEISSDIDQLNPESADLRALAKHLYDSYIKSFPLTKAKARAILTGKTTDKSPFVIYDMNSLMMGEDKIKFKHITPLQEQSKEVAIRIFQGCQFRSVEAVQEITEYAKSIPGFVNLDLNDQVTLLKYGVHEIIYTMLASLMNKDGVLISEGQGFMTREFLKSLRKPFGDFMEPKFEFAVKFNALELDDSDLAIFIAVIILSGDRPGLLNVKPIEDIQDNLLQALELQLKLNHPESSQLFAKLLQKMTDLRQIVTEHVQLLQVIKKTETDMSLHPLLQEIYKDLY
In short: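 Beta-lactamase reporter under UAS control in HEK293H PPARg-bla cells; compound treatment 17 h at 37C. Read-out: fluorescence intensity after 1 h room-temperature incubation with LiveBLAzer B/G FRET substrate.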

[2] = qHTS assay for small molecule agonists of the antioxidant response element (ARE) signaling pathway (AID 743202; active = well fitted activation curve with a large enough effect in the signal ratio in the repeat runs, not every such curve was filed as active; inconclusive = weak or mixed curves, or effect the other way; inactive = no such curve, though single readings can be large or run the other way; the % refers to the signal ratio; also: potency is read from the fitted curve at half-maximal effect; as to activation: % is scaled to controls: 0 for no effect and ±100 for the full control effect); conditions: HepG2 ARE-bla reporter, beta-lactamase FRET, 16 h
In short: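 Beta-lactamase reporter activity, read as fluorescence intensity, reflects ARE/Nrf2 pathway induction in HepG2 cells after 16 h compound exposure at 37 C; substrate loading was 2 h at room temperature.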

[3] = qHTS assay to identify small molecule antagonists of the peroxisome proliferator-activated receptor gamma (PPARg) signaling pathway - cell viability counter screen (AID 743194); conditions: PPARg-bla HEK293H viability, CellTiter-Glo luminescence, 17 h, co-treated with 50 nM rosiglitazone; activity change, negative = cytotoxicity: at 62.6 µM (top of the series); also: nearly all actives have a fitted effect of over 55% in size; also: potency is read from the fitted curve at half-maximal effect
In short: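 Viability was measured as CellTiter-Glo luminescence in GeneBLAzer PPARg UAS-bla HEK293H cells. These cells had been exposed 17 h at 37 C to compounds together with rosiglitazone at 50 nM final, with the beta-lactamase readout taken in the same wells.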

[4] = qHTS assay to identify small molecule antagonists of the peroxisome proliferator-activated receptor delta (PPARd) signaling pathway - cell viability counter screen (AID 743213); conditions: PPARd-bla HEK293H viability, CellTiter-Glo luminescence, 17 h; viability change, negative = cytotoxic: at 62 µM (top of the series) unless noted; also: nearly all actives have a fitted effect of over 50% in size; also: potency is read from the fitted curve at half-maximal effect
In short: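 In this counter screen, HEK293H cells carrying a UAS-beta-lactamase reporter are co-treated with test compounds and 300 nM L165041 (final) for 17 h at 37 C; cell viability is quantified by CellTiter-Glo luminescence.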

[5] = target: Vitamin D3 receptor (Homo sapiens) (UniProt P11473); assay: qHTS assay to identify small molecule antagonists of the vitamin D receptor (VDR) signaling pathway (AID 743223; active = well fitted inhibition curve with a large enough effect in the signal ratio in the repeat runs, not every such curve was filed as active; inconclusive = weak or mixed curves, or effect the other way; inactive = no such curve, though single readings can be large or run the other way; the % refers to the signal ratio; also: potency is read from the fitted curve at half-maximal effect); conditions: VDR-UAS-bla HEK293T, beta-lactamase FRET ratio, 16 h
UniProt P11473, sequence (P11473 whole entry, looked up): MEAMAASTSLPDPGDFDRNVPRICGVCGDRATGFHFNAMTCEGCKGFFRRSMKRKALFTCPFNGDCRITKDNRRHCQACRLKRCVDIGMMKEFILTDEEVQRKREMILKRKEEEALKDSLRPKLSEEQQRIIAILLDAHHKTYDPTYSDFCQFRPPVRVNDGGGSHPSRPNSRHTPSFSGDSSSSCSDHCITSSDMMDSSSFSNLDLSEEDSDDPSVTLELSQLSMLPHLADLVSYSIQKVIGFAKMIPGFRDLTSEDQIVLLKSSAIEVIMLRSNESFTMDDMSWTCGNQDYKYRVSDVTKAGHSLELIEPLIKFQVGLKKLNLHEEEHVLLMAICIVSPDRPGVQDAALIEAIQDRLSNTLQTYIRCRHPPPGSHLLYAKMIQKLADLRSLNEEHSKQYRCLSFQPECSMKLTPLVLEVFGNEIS
In short: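 Quantitative HTS in VDR-bla reporter cells stimulated with 1alpha,25-dihydroxyvitamin D3, 3 nM final. Compound exposure 16 h, 37C, 5% CO2. Read-out: beta-lactamase FRET substrate fluorescence, 2 h RT.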

[6] = qHTS assay for small molecule agonists of the antioxidant response element (ARE) signaling pathway - cell viability counter screen (AID 743203; calls by dose curve; also: % is scaled to controls: 0 for no effect and ±100 for the full control effect; nearly all actives have a fitted effect of over 55% in size); conditions: ARE-bla HepG2 viability, CellTiter-Glo luminescence, 16 h; viability change, negative = cytotoxic: at 73.3 µM (top of the series)
In short: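 Viability counter screen: CellTiter-Glo luminescence, read after 30 min at room temperature, in ARE-bla HepG2 wells. Compound exposure lasted 16 h at 37C/5% CO2, following a 5 h pre-incubation of the cells after plating.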

[7] = qHTS assay for small molecule activators of the heat shock response signaling pathway - cell viability counter screen (AID 743209); conditions: HSE-bla HeLa viability, CellTiter-Glo luminescence, 5 h; activity change, negative = cytotoxicity: at 62.6 µM (top of the series); also: potency is read from the fitted curve at half-maximal effect; nearly all actives have a fitted effect of over 50% in size
In short: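 Cytotoxicity counter screen run in the same wells as the heat-shock bla reporter assay: HeLa HSE-bla cells, 5 h compound exposure at 37 C, viability read by CellTiter-Glo luminescence.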

[8] = qHTS assay for small molecule activators of the heat shock response signaling pathway (AID 743210; active = well fitted activation curve with a large enough effect in the signal ratio in the repeat runs, with a control signal flat, not every such curve was filed as active; inconclusive = weak or mixed curves; the % refers to the signal ratio; also: potency is read from the fitted curve at half-maximal effect); conditions: HeLa HSE-bla reporter, beta-lactamase ratio, 5 h; activation: at 62.6 µM (top of the series)
In short: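 Fluorescence from a cleaved B/G FRET substrate (2.5 h, room temp) reports HSE-driven beta-lactamase in HeLa cells treated 5 h at 37 C with DMSO-dissolved compounds.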

[9] = qHTS assay to identify small molecule agonists of the peroxisome proliferator-activated receptor delta (PPARd) signaling pathway - cell viability counter screen (AID 743211); conditions: PPARd-bla HEK293H viability, CellTiter-Glo luminescence, 17 h; activity change, negative = cytotoxicity: at 62.6 µM (top of the series); also: nearly all actives have a fitted effect of over 55% in size; also: potency is read from the fitted curve at half-maximal effect
In short: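 Tox21 library compounds, delivered in DMSO, were incubated 17 h with PPARd-bla HEK293H cells; cytotoxicity was taken from CellTiter-Glo luminescence read 30 min after reagent addition.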

[10] = target: Peroxisome proliferator-activated receptor delta (Homo sapiens) (UniProt Q03181); assay: qHTS assay to identify small molecule antagonists of the peroxisome proliferator-activated receptor delta (PPARd) signaling pathway (AID 743215; active = well fitted inhibition curve with a large enough effect in the signal ratio in the repeat runs, not every such curve was filed as active; inconclusive = weak or mixed curves, or effect the other way; inactive = no such curve, though single readings can be large or run the other way; the % refers to the signal ratio;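 also: cells stimulated with agonist L165041 at 300 nM final during compound exposure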; also: potency is read from the fitted curve at half-maximal effect); conditions: HEK293H PPARd-UAS-bla, beta-lactamase FRET ratio, antagonist, 17 h; ratio activity, negative = inhibition: at 62 µM (top of the series) unless noted
UniProt Q03181, sequence (Q03181 whole entry, looked up): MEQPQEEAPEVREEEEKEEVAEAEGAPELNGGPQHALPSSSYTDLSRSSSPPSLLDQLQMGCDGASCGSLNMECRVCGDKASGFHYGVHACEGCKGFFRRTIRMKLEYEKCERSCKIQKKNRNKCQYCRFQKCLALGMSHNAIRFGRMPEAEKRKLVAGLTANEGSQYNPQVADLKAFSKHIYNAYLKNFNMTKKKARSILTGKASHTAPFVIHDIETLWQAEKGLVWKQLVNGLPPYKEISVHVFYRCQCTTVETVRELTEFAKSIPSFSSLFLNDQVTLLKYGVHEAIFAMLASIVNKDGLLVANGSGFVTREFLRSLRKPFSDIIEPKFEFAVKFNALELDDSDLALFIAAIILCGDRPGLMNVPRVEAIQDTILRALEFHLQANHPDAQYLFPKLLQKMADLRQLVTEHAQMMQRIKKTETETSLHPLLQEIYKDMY
In short: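 Agonist L165041 (300 nM final) added with compound to PPARd-bla HEK293H UAS-bla reporter cells; 17 h incubation at 37 C. Read-out: LiveBLAzer FRET substrate, 2 h at room temperature, fluorescence intensity.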

[11] = qHTS assay to identify small molecule agonists of the farnesoid-X-receptor (FXR) signaling pathway - cell viability counter screen (AID 743218); conditions: FXR-bla HEK293T viability, CellTiter-Glo luminescence, 16 h; viability change, negative = cytotoxic: at 62.6 µM (top of the series) unless noted; also: nearly all actives have a fitted effect of over 45% in size; also: potency is read from the fitted curve at half-maximal effect
In short: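 Viability counter screen in the same wells: CellTiter-Glo luminescence, 30 min room-temperature incubation, measured after the beta-lactamase read. Cells were GeneBLAzer FXR-UAS-bla HEK 293T, compound-treated 16 h at 37C.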

[12] = target: Vitamin D3 receptor (Homo sapiens) (UniProt P11473); assay: qHTS assay to identify small molecule agonists of the vitamin D receptor (VDR) signaling pathway (AID 743222; calls by dose curve; also: potency is read from the fitted curve at half-maximal effect); conditions: HEK293T VDR-UAS-bla, beta-lactamase FRET ratio, 16 h; activation: at 63.5 µM (top of the series) unless noted
In short: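 Agonist mode, beta-lactamase reporter: fluorescence from LiveBLAzer B/G FRET substrate (2 h, room temperature) read after 16 h compound treatment at 37 C of VDR-bla cells, which were pre-incubated 4 h after seeding.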

[13] = target: Bile acid receptor (Homo sapiens) (UniProt Q96RI1); assay: qHTS assay to identify small molecule antagonists of the farnesoid-X-receptor (FXR) signaling pathway (AID 743217; active = well fitted inhibition curve with a large enough effect in the signal ratio in the repeat runs, not every such curve was filed as active; inconclusive = weak or mixed curves, or effect the other way; inactive = no such curve, though single readings can be large or run the other way; the % refers to the signal ratio; also: potency is read from the fitted curve at half-maximal effect); conditions: HEK293T FXR-UAS-bla, beta-lactamase ratio, CDCA-stimulated, 16 h; activity change, negative = inhibition: at 62.6 µM (top of the series) unless noted
UniProt Q96RI1, sequence (Q96RI1 whole entry, looked up): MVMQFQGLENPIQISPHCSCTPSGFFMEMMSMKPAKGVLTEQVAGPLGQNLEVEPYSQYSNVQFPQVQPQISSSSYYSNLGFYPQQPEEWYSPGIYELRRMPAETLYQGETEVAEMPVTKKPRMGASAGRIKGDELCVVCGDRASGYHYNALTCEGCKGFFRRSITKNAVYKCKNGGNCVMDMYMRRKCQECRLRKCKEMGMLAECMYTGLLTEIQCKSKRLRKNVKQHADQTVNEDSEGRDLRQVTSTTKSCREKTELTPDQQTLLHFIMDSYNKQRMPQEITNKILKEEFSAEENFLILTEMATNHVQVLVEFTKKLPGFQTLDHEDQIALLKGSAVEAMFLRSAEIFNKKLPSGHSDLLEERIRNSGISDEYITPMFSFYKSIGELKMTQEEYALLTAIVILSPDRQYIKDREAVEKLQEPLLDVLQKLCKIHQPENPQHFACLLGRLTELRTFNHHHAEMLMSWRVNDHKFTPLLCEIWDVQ
In short: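 Antagonist mode: chenodeoxycholic acid at 50 uM final stimulates a UAS-driven beta-lactamase reporter in HEK 293T FXR-bla cells during 16 h, 37C compound exposure. Read-out is FRET substrate fluorescence after 2 h at room temperature.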

[14] = target: Peroxisome proliferator-activated receptor delta (Homo sapiens) (UniProt Q03181); assay: qHTS assay to identify small molecule agonists of the peroxisome proliferator-activated receptor delta (PPARd) signaling pathway (AID 743212; calls by dose curve;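 also: HEK293H cells with PPARd UAS beta-lactamase reporter GeneBLAzer system; % is scaled to controls: 0 for no effect and ±100 for the full control effect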); conditions: HEK293H PPARd-UAS-bla, beta-lactamase FRET ratio, 17 h; activation: at 62.6 µM (top of the series) unless noted
In short: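 Steps: seed PPARd-bla HEK293H cells; incubate 5 h, 37 C, 5% CO2; add compounds in DMSO; incubate, 37 C; add LiveBLAzer B/G FRET substrate; hold 2 h at room temperature; measure fluorescence.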

[15] = target: Bile acid receptor (Homo sapiens) (UniProt Q96RI1); assay: qHTS assay to identify small molecule agonists of the farnesoid-X-receptor (FXR) signaling pathway (AID 743220; active = well fitted activation curve with a large enough effect in the signal ratio in the repeat runs, not every such curve was filed as active; inconclusive = weak or mixed curves, or effect the other way; the % refers to the signal ratio; also: % is scaled to controls: 0 for no effect and ±100 for the full control effect); conditions: HEK293T FXR-UAS-bla, beta-lactamase FRET ratio, 16 h; activation: at 62.6 µM (top of the series) unless noted
In short: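 FXR-UAS-bla HEK 293T cells carrying a UAS-driven beta-lactamase reporter were plated for 5 h at 37C/5% CO2, then exposed to DMSO-dissolved Tox21 10K compounds for 16 h at 37C. A LiveBLAzer B/G FRET substrate was loaded for 2 h at room temperature before fluorescence reading.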

[16] = qHTS assay to identify small molecule antagonists of the farnesoid-X-receptor (FXR) signaling pathway - cell viability counter screen (AID 743221; active = well fitted cell-killing curve with a large enough effect in the repeat runs, not every such curve was filed as active; inconclusive = weak or mixed curves, or effect the other way; inactive = no such curve, though single readings can be large or run the other way; also: potency is read from the fitted curve at half-maximal effect; nearly all actives have a fitted effect of over 50% in size); conditions: FXR-bla HEK293T viability, CellTiter-Glo luminescence, 16 h; activity change, negative = cytotoxicity: at 62.6 µM (top of the series)
In short: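 Cytotoxicity is taken from ATP luminescence (CellTiter-Glo, 30 min, room temperature) in FXR-bla HEK 293T cells previously incubated 16 h at 37 C with compound and chenodeoxycholic acid at 50 uM final.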

[17] = activation: at 73.3 µM (top of the series) unless noted
[18] = activity change, negative = inhibition: at 61 µM (top of the series) unless noted
Tags tell the direction and shape of the fitted curve or compound fluorescence and quenching.

For `CCC(=O)OC/C=C/c1ccccc1`, the Potency [1] was “inactive” and the activation [2, 17] was inconclusive: 36.6%.
For `CCN(CCCc1ccccc1)CCCc1ccccc1`, the ratio activity, negative = inhibition [1] was inconclusive: -14.3%, the Potency [3] was inconclusive: 0.075 µM [cytotoxic, full curve, poor fit] and the activation [2, 17] was inconclusive: -11%. The Potency [4] was inconclusive: 0.266 µM [cytotoxic, single point] and the Potency [5, 18] was “inactive”.
For `O=C(O)c1cccc(Cl)n1`, the ratio activity, negative = inhibition [1] was inconclusive: 5.15%, the activation [2, 17] was inconclusive: 20.7% and the Potency [6] was “inactive”. For the same compound, the Potency [7] was inconclusive: 17.4 µM [cytotoxic, full curve], the Potency [8] was inconclusive: 30.9 µM and the Potency [9] was inconclusive: 21.9 µM [cytotoxic, partial curve, poor fit]. The Potency [4] was inconclusive: 21.9 µM [cytotoxic, single point], the Potency [10] was inconclusive: 21.9 µM [single point] and the Potency [11] was “inactive”. For the same compound, the Potency [12] was inconclusive: 38.9 µM [rising, partial curve] and the Potency [5, 18] was inconclusive: 21.9 µM [rising, single point].
With `CCCCCC1=CCCC1=O` the Potency [1] was “inactive and inconclusive: 24.5 µM [inhibitor, full curve]”, the Potency [3] was “inactive” and the Potency [2, 17] was “inactive”. For the same compound, the Potency [13] was “inactive”, the Potency [12] was inconclusive: 24.5 µM [rising, single point] and the activity change, negative = inhibition [5, 18] was inconclusive: -14.6% [at 78.8 µM]. The activity change, negative = inhibition ([5]; at 61 µM (top of the series)) was inactive: 1.43%.
In the case of `Nc1cc(C(=O)O)ccc1Cl`, the Potency [1] was “inactive” and the Potency [2, 17] was “inactive”.
For `O=C1CCCc2c(O)cccc21`, the Potency [1] was “inactive” and the activation [2, 17] was inconclusive: 17.3%.
With `O=c1[nH]cnc2[nH]ncc12` the Potency [1] was “inactive”, the activation [2, 17] was inconclusive: 1.55% and the activation ([2]; at 94.8 µM (top of the series)) was inactive: 4.13%. For the same compound, the Potency [11] was inconclusive: 0.0376 µM [cytotoxic, full curve, poor fit].
For `CCCCOCCOC(=O)COc1nc(Cl)c(Cl)cc1Cl`, the ratio activity, negative = inhibition [1] was inconclusive: -2.03%, the Potency [3] was “inactive” and the activation [2, 17] was inconclusive: 17.7%. For the same compound, the Potency [8] was “inactive”, the Potency [9] was “inactive” and the Potency [4] was “inactive”. For the same compound, the activity change, negative = inhibition [5, 18] was inconclusive: -4.24%.
For `CN1CCC(=C2c3ccccc3C=Cc3ccccc32)CC1`, the ratio activity, negative = inhibition [1] was inconclusive: 5.59%, the Potency [3] was inconclusive: 5.96 µM [cytotoxic, partial curve] and the Potency [2, 17] was “inactive”. For the same compound, the Potency [9] was inconclusive: 21.1 µM [cytotoxic, partial curve], the activation [14] was inconclusive: -6.03% and the Potency [4] was inconclusive: 29.8 µM [cytotoxic, single point]. For the same compound, the ratio activity, negative = inhibition [10] was inconclusive: -10.6%, the Potency [13] was inconclusive: 13.3 µM [inhibitor, partial curve] and the Potency [11] was inconclusive: 37.6 µM [cytotoxic, partial curve, poor fit]. The Potency [15] was “inactive” and the Potency [5, 18] was “inactive”.
With `COC(=O)CC(=O)C(C)(C)C` the Potency [1] was “inactive”, the Potency [3] was inconclusive: 0.0616 µM [cytotoxic, full curve, poor fit] and the activation [2, 17] was inconclusive: 0.892%. For the same compound, the Potency [16] was inconclusive: 43.6 µM [falling, partial curve, poor fit].
For `C=Cc1ccccc1`, the ratio activity, negative = inhibition [1] was inconclusive: 2.61% and the Potency [2, 17] was “inactive”.
With `O=c1[nH]c(=O)n([C@H]2O[C@H](CO)[C@@H](O)[C@@H]2O)cc1/C=C\Br` the ratio activity, negative = inhibition [1] was inconclusive: -4.99%, the Potency [3] was inconclusive: 16.8 µM [cytotoxic, partial curve, poor fit] and the Potency [10] was “inactive”.
In the case of `O=c1c(O)c(-c2ccc(O)c(O)c2)oc2cc(O)cc(O)c12`, the Potency [1] was inconclusive: 55.4 µM [fluorescent] and inconclusive: 5.96 µM [activator, full curve, poor fit], the Potency [2, 17] was inconclusive: 6.12 µM [rising, full curve] and the activation [2, 17] was inconclusive: 6.13%. The Potency [7] was inconclusive: 0.0668 µM [cytotoxic, full curve, poor fit], the Potency [4] was “inactive” and the Potency [16] was inconclusive: 55 µM [rising, single point].
With `COc1ccc(C(=O)CC(=O)c2ccc(C(C)(C)C)cc2)cc1` the Potency [1] was “inactive”, the Potency [3] was inconclusive: 47 µM [cytotoxic, partial curve, poor fit] and the Potency [7] was inconclusive: 33.5 µM [cytotoxic, single point]. The Potency [8] was inconclusive: 52.7 µM [falling, single point] and inconclusive: 33.5 µM [falling, single point], the Potency [9] was inconclusive: 52.7 µM [cytotoxic] and the viability change, negative = cytotoxic [4] was inconclusive: 31%. For the same compound, the activity change, negative = inhibition [13] was inconclusive: -11.1% and inconclusive: -22%, the Potency [11] was “inactive and inconclusive: 29.8 µM [cytotoxic, single point]” and the Potency [5, 18] was “inactive”.
